86 compounds from PubChem BioAssay (NCI) can be followed below.

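Values below derive from 48-hour exposures of cells grown in 96-well plates, with endpoints linearly interpolated between the two concentrations bracketing the appropriate inhibition level. GI50 = concentration required for 50% inhibition of growth. At the TGI there is no net growth.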 Where only a bound is given, the exact number is not on record here.

For this experiment, the system named is NCI-H322M lung. Kind of experiment: DTP human tumour cell line panel, 48 h.
With `N=C(N)c1ccc(-c2ccc(-c3ccc(Cl)cc3Cl)o2)nc1`, the GI50 (in general, the concentration at which growth is held to half of that of the control) is 1.63 µM and the concentration for total growth inhibition (TGI) (usually the concentration giving total growth inhibition) was 2.99 µM.
Compound `CCCCCC1CC=CC(=O)O1` (configuration not stated) gave a total growth inhibition concentration (TGI) of 14.4 µM.
The same measure, in the same setting: under `Cn1c2ccccc2n2c3ncccc3c(=NCCCC(=O)O)c(C#N)c12` stands above 100 µM; under `O=C1NC(=S)N/C1=C\c1cc2c(=O)c3ccccc3sc2s1`, above 100 µM.
In the case of `COC1=CC(c2ccc[nH]2)=N/C1=C\c1[nH]c(C)c(CC(=O)OCc2ccccc2)c1CCC(=O)OCc1ccccc1`, the GI50 was 0.896 µM and the TGI is 12.9 µM.
The compound `FC(F)(F)c1ccc(Cc2nc3cc4ccccc4cc3[nH]2)cc1` came in with a TGI above 100 µM.
For the compound `O=C(NC(Cl)(C(F)(F)F)C(F)(F)F)c1ccc(F)cc1`, the TGI is above 100 µM.
Still for that read-out and setting: under `Oc1cc(O)c2ccc(-c3ccc(O)c(O)c3)[o+]c2c1` stands above 100 µM; under `O=C1C(C(O)(C(F)(F)Cl)C(F)(F)Cl)CCCC1C(O)(C(F)(F)Cl)C(F)(F)Cl` (configuration not stated), above 10 µM.
The same measure, in the same setting: under `O=[N+]([O-])c1ccc2nc(Cl)n[n+]([O-])c2c1` stands 32.2 µM.
Take `CC1=NN(C(=O)c2ccccc2O)C(=O)/C1=C/c1cccc(O)c1`: the total growth inhibition concentration (TGI) was above 100 µM.
The same measure, in the same setting: the value for `CC[C@H]1CN2CCc3cc(OC)c(OC)cc3C2C[C@@H]1CC1NCCc2cc(OC)c(OC)cc21` (some centres not stated) was 0.19 µM; that for `Cc1[nH]c(=O)nc2c1C(NCCCN(C)C)c1cc(Cl)ccc1N2` (configuration not stated) was 29.4 µM.
Turning to `O=C(COc1ccc(/C=C2\COc3ccccc3C2=O)cc1)Nc1nccs1`, the GI50 was 13.7 µM and the TGI came out at 28.2 µM.
On to `Cc1cc([N+](=O)[O-])ccc1Sc1c2ccccc2nc2cc(Cl)ccc12`, for which the TGI is above 100 µM.
`COc1ccc(N=Cc2c(O)ccc3c2oc2cc(Cl)c(O)c(Cl)c23)cc1`: the GI50 is 14.5 µM and the TGI was 48.5 µM.
For `Nc1c(C(=O)c2ccc(-c3cccnc3)cc2)cnn1-c1ccc(F)cc1` the same measures were above 16.8 µM and above 25 µM.
Compound `CC(C)C1OC(N)=C(C#N)C1(C#N)C#N` (configuration not stated) gave a TGI above 100 µM.
The same measure, in the same setting: the value for `C=CC(=O)NCCSCCCOC1(C(=O)O)CC(O)C(NC(C)=O)C(C(O)C(O)CO)O1` (configuration not stated) was above 100 µM; that for `Nc1nc2c(ncn2C2CCC(CO)O2)c(=O)n1C(=O)c1ccccc1` (configuration not stated) was above 100 µM.
With `O=C1CC[C@H](N2C(=O)c3cccc4c(Cc5ccc(CN6CCOCC6)cc5)ccc2c34)C(=O)N1`, the GI50 is above 100 µM and the TGI is above 100 µM.
Take `O=C(NC(=S)Nc1ccc2c(c1)Sc1ccccc1O2)c1ccc([N+](=O)[O-])cc1`: the TGI was above 100 µM.
With `CCN(CC)CCNc1ccc(C)c2sc3cc(Cl)ccc3c(=O)c12`, the GI50 is 1.45 µM and the TGI turned out to be 3.05 µM.
The compound `O=C1C(Cl)N(c2cccc(Cl)c2)C1c1c[nH]c2ccccc12` (configuration not stated) yielded a total growth inhibition concentration (TGI) above 100 µM.
Same read-out and setting: under `OCc1cc2c(ccc3sc4ccc5sc6ccc7ncccc7c6c5c4c32)s1` stands 17.3 µM; under `COC(=O)c1c(C)cccc1C1CN=NC12Cc1ccccc1C2=O` (configuration not stated), above 100 µM.
The same measure, in the same setting: under `CCc1c(CN)c(CC)c(CNC2=NCCN2)c(CC)c1CNC1=NCCN1` stands above 100 µM.
For the compound `O=C(c1ccco1)c1nc2cc(C(F)(F)F)ccc2nc1C(F)(F)F`, the GI50 was above 100 µM and the TGI is above 100 µM.
In the case of `CCOP(=O)(C=C=C1CCC2[C@@H]3CCc4cc(OC)ccc4C3CC[C@]12C)OCC` (some centres not stated), the TGI is 30.7 µM.
`CCCCc1ccc(Nc2nc(Cl)c3ncn(COCCOC(C)=O)c3n2)cc1` yielded a TGI of 32.2 µM.
On the same count and under the same terms, the value for `COC(=O)C1=Cc2cc(OC)c(OC)c(OC)c2[C@H](c2cc(OC)c(OC)c(OC)c2)C1C(=O)OC` (some centres not stated) was above 100 µM.
As for `NS(=O)(=O)OCC1OC(n2cnc3cncnc32)C(O)C1O` (configuration not stated), the GI50 was 0.0188 µM and the concentration for total growth inhibition (TGI) came to 0.0692 µM.
Compound `COc1c(O)c(OC)c2oc(-c3ccc(O)c(O)c3)c(OC)c(=O)c2c1O` came in with a total growth inhibition concentration (TGI) above 100 µM.
Regarding `CC(C)(C)n1c(=O)n2n(c1=O)Cc1cccc3cccc(c13)C2`, the TGI is above 100 µM.
`CC(=O)Nc1ccccc1-c1nc2ccccc2nc1C` showed a TGI above 100 µM.
`c1ccc2c(CN3CCN(Cc4c[nH]c5ccccc45)CC3)c[nH]c2c1` yielded a TGI of 45.1 µM.
Regarding `c1ccc(N2N=C(c3cccc(Nc4ccncc4)c3)CC2c2ccc3c(c2)OCO3)cc1` (configuration not stated), the GI50 was 2.04 µM and the TGI was 5.27 µM.
`COc1ccc(CC2C3=C(CCN2C(=O)C2CCC2)CC2(CC3)OCCO2)cc1O` (configuration not stated) registered a TGI above 100 µM.
Compound `O=C(C=C1SCCS1)/C=C\c1ccc(Cl)cc1` returned a TGI above 100 µM.
Still for that read-out and setting: the value for `CC(C)(C)c1cc(-c2cc(C(C)(C)C)[nH]n2)n[nH]1` was above 100 µM.
As for `Cc1cc(Cl)cc2c(N=Nc3ccc(S(N)(=O)=O)cc3)c(O)[nH]c12`, the GI50 is above 25 µM and the total growth inhibition concentration (TGI) is above 25 µM.
`C=CCC(N[C@@H](CO)c1ccccc1)c1cn(Cc2ccccc2Cl)c(=O)n(Cc2ccccc2Cl)c1=O` (some centres not stated): the GI50 is above 100 µM and the TGI is above 100 µM.
In turn, `O=C(O)/C=C/C(=O)N1Cc2cc3ccccc3nc2C1` yielded a concentration for total growth inhibition (TGI) above 100 µM.
Still for that read-out and setting: the value for `N#Cc1cnc(-n2[nH]c3c(c2=O)CCCC3)[nH]c1=O` was above 100 µM; that for `Clc1ccc(Nc2nnc(CCCCCCCCc3nnc(Nc4ccc(Cl)cc4)o3)o2)cc1` was above 100 µM.
Same read-out and setting: the value for `O=P1(Oc2ccccc2)N=P(c2ccccc2)(c2ccccc2)C=C(c2ccc(Cl)cc2)N1` (configuration not stated) was 26.4 µM.
Take `Cc1cc(O)c2c(c1O)C(=O)c1cccc(O)c1C2=O`: the TGI is above 100 µM.
As for `Nc1ccccc1NC(=O)c1ccc(CNc2nccc(-c3cccnc3)n2)cc1`, the GI50 was 1.92 µM and the TGI was above 100 µM.
Consider `NC(=S)N/N=C/c1nccc2ccccc12`, for which the TGI was determined as 33 µM.
`C#CCNC(=O)N(CC#C)N=O` came in with a concentration for total growth inhibition (TGI) above 100 µM.
The same measure, in the same setting: the value for `CN1C(=O)CCC2[C@@H]3CC=C4C[C@@H](O)CC[C@]4(C)C3CC[C@@]21C` (some centres not stated) was above 100 µM; that for `CCN(CC)Cc1cc(Nc2c3ccccc3nc3c2[nH]c2ccccc23)cc(CN(CC)CC)c1O` was 4.77 µM; that for `CC(=O)Nc1ccc(/C=c2\sc3nnc(CCC(=O)Nc4ccccc4Cl)n3c2=O)cc1` was above 100 µM.
Same read-out and setting: under `COc1ccc2c(c1O)-c1cc(O)cc3c1[C@@H](C2)N(C)CC3` stands 119 µM; under `COc1ccc(C(CCC(C)=O)C(=O)O)cc1OC` (configuration not stated), above 100 µM.
Turning to `CC(=O)OCC(OC(C)=O)C(OC(C)=O)C(/C=N\Nc1nc2ccccc2c(=O)[nH]1)=N\Nc1nc2ccccc2c(=O)[nH]1` (configuration not stated), the TGI is above 100 µM.
`CCOC(=O)[C@@H](C)C[C@H](Cc1ccccc1)NC(=O)c1nc([C@@H](C[C@H](C(C)C)N(C)C(=O)[C@@H](NC(=O)[C@H]2CCCCN2C)C(C)C)OC(C)=O)sc1CCOCc1ccccc1`: the GI50 is 0.0534 µM and the TGI was found to be 6.17 µM.
For the compound `COC(=O)/C(=N\NC(N)=O)C(C(=O)C(=O)Nc1ccccc1OC)c1nc2ccc([N+](=O)[O-])cc2[nH]c1=O` (configuration not stated), the TGI was above 100 µM.
For `OC(c1cc(-c2cccc(Cl)c2)nc2ccccc12)C1CCCCN1` (configuration not stated), the GI50 was 1.83 µM and the TGI was determined as 3.28 µM.
Consider `COc1cc(=O)c2c(O)c3c(O)oc(C)cc3c(OC)c2c1`, for which the TGI worked out at 68.1 µM.
The compound `COc1ccccc1NC(=O)C1=C(C)NC(C)=C(C(=O)Nc2ccccc2OC)C1C1=CC=COC1` showed a TGI above 100 µM.
Still for that read-out and setting: under `COC(=O)C(Cc1nc2ccccc2[nH]c1=O)/C(=N\NC(C)(C)C)C(=O)Nc1c(C)cc(Br)cc1C` (configuration not stated) stands above 100 µM; under `C(/C=C/c1ccccc1)=Nc1ccc2c(c1)Cc1ccccc1-2`, above 100 µM.
Regarding `CC[C@H](NC(=O)[C@H]1CCCCN1C)C(=O)N(C)[C@H](C[C@@H](OC(C)=O)c1nc(C(=O)N[C@@H](Cc2ccccc2)C[C@H](C)C(=O)O)cs1)C(C)C`, the GI50 was 0.00755 µM and the TGI was above 14.3 µM.
The compound `COc1cc2nc(Nc3cccc(Br)c3)nc(Nc3cccc(Br)c3)c2cc1OC` returned a TGI of 52 µM.
The same measure, in the same setting: under `COc1nc2ccc(COc3ccc(C(=O)NC(CCC(=O)O)C(=O)O)cc3)cc2nc1OC` (configuration not stated) stands above 10 µM.
On the same count and under the same terms, under `CCCC(=O)Nc1cc(/C=C/C(=O)N2CC(CCl)c3c2cc(OCc2ccccc2)c2[nH]cc(C)c32)n(C)c1` (configuration not stated) stands 1.14 µM; under `Cn1c(NNc2ccccc2)cc(=O)[nH]c1=O`, above 100 µM.
The compound `C=C1CCCC2[C@](C)(CC3=C(Cl)C(=O)C=C(OC)C3=O)C(C)CC[C@]12C` (some centres not stated) showed a TGI of 22.1 µM.
The same measure, in the same setting: the value for `O=C1/C(=N\O)c2ccccc2S1(=O)=O` was above 100 µM.
Regarding `c1ccc([CH2][Sn]([CH2]c2ccccc2)([O]c2cccc3cccnc23)[O]c2cccc3cccnc23)cc1`, the GI50 is 0.725 µM and the TGI came to 1.95 µM.
Regarding `Cc1c(C)c(C)c(CC2(C)CSC2)c(CC2(C)CSC2)c1C`, the TGI was above 100 µM.
Consider `COc1ccc(C(=O)Nc2ncc(Cc3cccc(Cl)c3)s2)cc1OC`, for which the GI50 was 15.7 µM and the TGI was above 100 µM.
On to `O=C(Cn1cc(-c2ccccc2)nn1)NC1CCCCC1`, for which the TGI was above 100 µM.
Same read-out and setting: the value for `NC(CSCc1ccc(I)cc1)C(=O)O` (configuration not stated) was above 100 µM.
`CCCCNc1nc2ccccc2c2c1ncn2CC(C)C`: the TGI was above 100 µM.
As for `C[n+]1c(/C=C/c2c[nH]c3ccccc23)ccc2ccccc21`, the GI50 was 7 µM and the TGI worked out at 28 µM.
Consider `C1=NCCN2CCN(CCN=Cc3ccccc3OCc3cccc(n3)COc3ccccc31)CC2`, for which the TGI is above 50 µM.
Still for that read-out and setting: the value for `COC(=O)CCC(NC(=S)N/N=C/c1ccccn1)C(=O)OC` (configuration not stated) was above 100 µM; that for `C=C(C)C(=O)O[C@H]1CC2=C[C@@H](C[C@@]3(C)O[C@@H]3[C@H]3OC(=O)C(=C)[C@@H]31)OC2=O` was 28.1 µM; that for `CC(=O)N1N=C(c2ccc3ccccc3c2O)CC1c1cccs1` (configuration not stated) was above 100 µM.
Still for that read-out and setting: under `O=C(c1ccccc1)c1ccc(N2C(=O)/C(=C/Cc3ccco3)N=C2c2ccccc2)c(N2C(=O)/C(=C/Cc3ccco3)N=C2c2ccccc2)c1` stands above 100 µM.
Regarding `NC1=CC(=O)c2cccnc2C1=O`, the GI50 is 12.2 µM and the TGI stood at 24.6 µM.
In the case of `Cn1cc(C2=C(c3ccccc3[N+](=O)[O-])C(=O)NC2=O)c2ccccc21`, the GI50 was 7.39 µM and the TGI is above 22.4 µM.
`CC(=O)OC1CC2CCN3C(=O)c4cc5c(cc4[C@H](C1OC(C)=O)C23)OCO5` (some centres not stated) yielded a TGI above 100 µM.
Still for that read-out and setting: under `O=c1ccn(CC2(CO)CCCC2)c(=O)[nH]1` stands above 100 µM.
